# Measured values reported in the supplement of paper PMC8728848.
# The other results are listed elsewhere or left out.
# B1: Pwp2 (Candida glabrata) (protein)
# chain: MGSSHHHHHHSSGLVPRGSHMASKNPVELNNVCTFPNDYGRIPGFTVLVGRLGLLISASDYKELLRYPGAFLIATQDTMTTSPNFELTGFPFFTGLYGLTVFPLDLLVELRGYFVPPNSGQYTFTLSDSDDAAIIFLGNPSAFPCGDLQNWPKPSEEDITVTDHLFPSRTLYLIEGVAYPMRIAYYNGIGAGRLNAAFIDPSGTRHTNWEGYIWQYDPCSTCTYS
# Columns and labels:
# Test in all cases: glycan array binding signal (z-score within array); higher = stronger binding
# Conditions in all cases: glycan notation: IUPAC condensed, linker removed
# Glc(b1-6)Glc = target: Glc(b1-6)Glc
# How it was run: (§1)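 Columns mapping to the same glycan were averaged after glycan names were converted to IUPAC-condensed notation. The data come from 3228 arrays in the Consortium for Functional Glycomics database, limited to those with an available protein sequence. Binding is reported as a within-array Z-score averaged across arrays of one protein sequence and across linkers.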
# GlcA(b1-3)Gal = target: GlcA(b1-3)Gal
# How it was run: as §1
# GlcA(b1-3)GlcNAc = target: GlcA(b1-3)GlcNAc
# How it was run: as §1
# GlcA(b1-6)Gal = target: GlcA(b1-6)Gal
# How it was run: as §1
# [1] = target: GlcA3S(b1-3)Gal(b1-4)GlcNAc(b1-2)Man
# How it was run: as §1
# [2] = target: GlcA3S(b1-3)Gal(b1-4)GlcNAc(b1-3)Gal(b1-4)Glc
# How it was run: as §1
# [3] = target: GlcNAc(a1-3)Gal(b1-4)GlcNAc
# How it was run: as §1
# [4] = target: GlcNAc(a1-4)Gal(b1-3)GlcNAc
# How it was run: as §1
# [5] = target: GlcNAc(a1-4)Gal(b1-4)GalNAc
# How it was run: as §1
# [6] = target: GlcNAc(a1-4)Gal(b1-4)GlcNAc
# How it was run: as §1
# [7] = target: GlcNAc(a1-4)Gal(b1-4)GlcNAc(b1-3)Gal(b1-4)Glc
# How it was run: as §1
# [8] = target: GlcNAc(a1-4)Gal(b1-4)GlcNAc(b1-3)Gal(b1-4)GlcNAc
# How it was run: as §1
# [9] = target: GlcNAc(a1-4)Gal(b1-4)GlcNAc(b1-3)Gal(b1-4)GlcNAc(b1-3)Gal(b1-4)GlcNAc
# How it was run: as §1
# [10] = target: GlcNAc(a1-4)Gal(b1-4)GlcNAc(b1-3)Gal(b1-4)[Fuc(a1-3)]GlcNAc(b1-3)Gal(b1-4)[Fuc(a1-3)]GlcNAc
# How it was run: as §1
# [11] = target: GlcNAc(a1-6)Gal(b1-4)GlcNAc
# How it was run: as §1
# [12] = target: GlcNAc(b1-2)Gal(b1-3)GalNAc
# How it was run: as §1
# [13] = target: GlcNAc(b1-2)Man(a1-3)[GlcNAc(b1-2)Man(a1-6)]Man(b1-4)GlcNAc(b1-4)GlcNAc
# How it was run: as §1
# [14] = target: GlcNAc(b1-2)Man(a1-3)[GlcNAc(b1-2)Man(a1-6)]Man(b1-4)GlcNAc(b1-4)[Fuc(a1-6)]GlcNAc
# How it was run: as §1
# [15] = target: GlcNAc(b1-2)Man(a1-3)[GlcNAc(b1-4)][GlcNAc(b1-2)Man(a1-6)]Man(b1-4)GlcNAc(b1-4)GlcNAc
# How it was run: as §1
# [16] = target: GlcNAc(b1-2)Man(a1-3)[GlcNAc(b1-4)][GlcNAc(b1-2)Man(a1-6)]Man(b1-4)GlcNAc(b1-4)[Fuc(a1-6)]GlcNAc
# How it was run: as §1
# [17] = target: GlcNAc(b1-2)[GlcNAc(b1-4)]Man(a1-3)[GlcNAc(b1-2)Man(a1-6)]Man(b1-4)GlcNAc(b1-4)GlcNAc
# How it was run: as §1
# [18] = target: GlcNAc(b1-2)[GlcNAc(b1-4)]Man(a1-3)[GlcNAc(b1-4)][GlcNAc(b1-2)Man(a1-6)]Man(b1-4)GlcNAc(b1-4)GlcNAc
# How it was run: as §1
# [19] = target: GlcNAc(b1-2)[GlcNAc(b1-4)]Man(a1-3)[GlcNAc(b1-4)][GlcNAc(b1-2)[GlcNAc(b1-6)]Man(a1-6)]Man(b1-4)GlcNAc(b1-4)GlcNAc
# How it was run: as §1
# [20] = target: GlcNAc(b1-2)[GlcNAc(b1-4)]Man(a1-3)[GlcNAc(b1-4)][GlcNAc(b1-2)[GlcNAc(b1-6)]Man(a1-6)]Man(b1-4)GlcNAc(b1-4)[Fuc(a1-6)]GlcNAc
# How it was run: as §1
# [21] = target: GlcNAc(b1-2)[GlcNAc(b1-6)]Man(a1-6)[GlcNAc(b1-2)Man(a1-3)]Man(b1-4)GlcNAc(b1-4)GlcNAc
# How it was run: as §1
# [22] = target: GlcNAc(b1-2)[GlcNAc(b1-6)]Man(a1-6)[GlcNAc(b1-2)Man(a1-3)]Man(b1-4)GlcNAc(b1-4)[Fuc(a1-6)]GlcNAc
# How it was run: as §1
# [23] = target: GlcNAc(b1-2)[GlcNAc(b1-6)]Man(a1-6)[GlcNAc(b1-4)][GlcNAc(b1-2)Man(a1-3)]Man(b1-4)GlcNAc(b1-4)GlcNAc
# How it was run: as §1
# GlcNAc(b1-3)Fuc = target: GlcNAc(b1-3)Fuc
# How it was run: as §1
# GlcNAc(b1-3)Gal = target: GlcNAc(b1-3)Gal
# How it was run: as §1
# [24] = target: GlcNAc(b1-3)Gal(b1-3)GalNAc
# How it was run: as §1
# GlcNAc(b1-3)Gal(b1-4)Glc = target: GlcNAc(b1-3)Gal(b1-4)Glc
# How it was run: as §1
# [25] = target: GlcNAc(b1-3)Gal(b1-4)GlcNAc
# How it was run: as §1
# [26] = target: GlcNAc(b1-3)Gal(b1-4)GlcNAc(b1-2)Man(a1-3)[GlcNAc(b1-3)Gal(b1-4)GlcNAc(b1-2)Man(a1-6)]Man(b1-4)GlcNAc(b1-4)GlcNAc
# How it was run: as §1
# [27] = target: GlcNAc(b1-3)Gal(b1-4)GlcNAc(b1-2)Man(a1-3)[GlcNAc(b1-3)Gal(b1-4)GlcNAc(b1-2)Man(a1-6)]Man(b1-4)GlcNAc(b1-4)[Fuc(a1-6)]GlcNAc
# How it was run: as §1
# [28] = target: GlcNAc(b1-3)Gal(b1-4)GlcNAc(b1-2)[GlcNAc(b1-3)Gal(b1-4)GlcNAc(b1-6)]Man(a1-6)[GlcNAc(b1-3)Gal(b1-4)GlcNAc(b1-2)Man(a1-3)]Man(b1-4)GlcNAc(b1-4)GlcNAc
# How it was run: as §1
# [29] = target: GlcNAc(b1-3)Gal(b1-4)GlcNAc(b1-3)Gal(b1-4)GlcNAc
# How it was run: as §1
# [30] = target: GlcNAc(b1-3)Gal(b1-4)GlcNAc(b1-3)Gal(b1-4)GlcNAc(b1-2)Man(a1-3)[GlcNAc(b1-3)Gal(b1-4)GlcNAc(b1-3)Gal(b1-4)GlcNAc(b1-2)Man(a1-6)]Man(b1-4)GlcNAc(b1-4)GlcNAc
# How it was run: as §1
# [31] = target: GlcNAc(b1-3)Gal(b1-4)GlcNAc(b1-3)Gal(b1-4)GlcNAc(b1-2)Man(a1-3)[GlcNAc(b1-3)Gal(b1-4)GlcNAc(b1-3)Gal(b1-4)GlcNAc(b1-2)Man(a1-6)]Man(b1-4)GlcNAc(b1-4)[Fuc(a1-6)]GlcNAc
# How it was run: as §1
# [32] = target: GlcNAc(b1-3)Gal(b1-4)GlcNAc(b1-3)Gal(b1-4)GlcNAc(b1-2)[GlcNAc(b1-3)Gal(b1-4)GlcNAc(b1-3)Gal(b1-4)GlcNAc(b1-6)]Man(a1-6)[GlcNAc(b1-3)Gal(b1-4)GlcNAc(b1-3)Gal(b1-4)GlcNAc(b1-2)Man(a1-3)]Man(b1-4)GlcNAc(b1-4)[Fuc(a1-6)]GlcNAc
# How it was run: as §1
# [33] = target: GlcNAc(b1-3)Gal(b1-4)GlcNAc(b1-3)Gal(b1-4)GlcNAc(b1-3)Gal(b1-4)GlcNAc(b1-2)Man(a1-3)[GlcNAc(b1-3)Gal(b1-4)GlcNAc(b1-3)Gal(b1-4)GlcNAc(b1-3)Gal(b1-4)GlcNAc(b1-2)Man(a1-6)]Man(b1-4)GlcNAc(b1-4)GlcNAc
# How it was run: as §1
# [34] = target: GlcNAc(b1-3)Gal(b1-4)GlcNAc(b1-3)Gal(b1-4)GlcNAc(b1-3)Gal(b1-4)GlcNAc(b1-2)Man(a1-3)[GlcNAc(b1-3)Gal(b1-4)GlcNAc(b1-3)Gal(b1-4)GlcNAc(b1-3)Gal(b1-4)GlcNAc(b1-2)Man(a1-6)]Man(b1-4)GlcNAc(b1-4)[Fuc(a1-6)]GlcNAc
# How it was run: as §1
# [35] = target: GlcNAc(b1-3)Gal(b1-4)GlcNAc(b1-3)Gal(b1-4)GlcNAc(b1-3)Gal(b1-4)GlcNAc(b1-2)[GlcNAc(b1-3)Gal(b1-4)GlcNAc(b1-3)Gal(b1-4)GlcNAc(b1-3)Gal(b1-4)GlcNAc(b1-6)]Man(a1-6)[GlcNAc(b1-3)Gal(b1-4)GlcNAc(b1-3)Gal(b1-4)GlcNAc(b1-3)Gal(b1-4)GlcNAc(b1-2)Man(a1-3)]Man(b1-4)GlcNAc(b1-4)[Fuc(a1-6)]GlcNAc
# How it was run: as §1
# [36] = target: GlcNAc(b1-3)Gal(b1-4)GlcNAc(b1-3)Gal(b1-4)GlcNAc(b1-3)Gal(b1-4)GlcNAc(b1-3)Gal(b1-4)GlcNAc(b1-2)Man(a1-3)[GlcNAc(b1-3)Gal(b1-4)GlcNAc(b1-3)Gal(b1-4)GlcNAc(b1-3)Gal(b1-4)GlcNAc(b1-3)Gal(b1-4)GlcNAc(b1-2)Man(a1-6)]Man(b1-4)GlcNAc(b1-4)GlcNAc
# How it was run: as §1
# [37] = target: GlcNAc(b1-3)Gal(b1-4)GlcNAc(b1-3)Gal(b1-4)GlcNAc(b1-3)Gal(b1-4)GlcNAc(b1-3)Gal(b1-4)GlcNAc(b1-2)Man(a1-3)[GlcNAc(b1-3)Gal(b1-4)GlcNAc(b1-3)Gal(b1-4)GlcNAc(b1-3)Gal(b1-4)GlcNAc(b1-3)Gal(b1-4)GlcNAc(b1-2)Man(a1-6)]Man(b1-4)GlcNAc(b1-4)[Fuc(a1-6)]GlcNAc
# How it was run: as §1
# [38] = target: GlcNAc(b1-3)Gal(b1-4)GlcNAc(b1-3)Gal(b1-4)GlcNAc(b1-3)Gal(b1-4)GlcNAc(b1-3)Gal(b1-4)GlcNAc(b1-2)[GlcNAc(b1-3)Gal(b1-4)GlcNAc(b1-3)Gal(b1-4)GlcNAc(b1-3)Gal(b1-4)GlcNAc(b1-3)Gal(b1-4)GlcNAc(b1-6)]Man(a1-6)[GlcNAc(b1-3)Gal(b1-4)GlcNAc(b1-3)Gal(b1-4)GlcNAc(b1-3)Gal(b1-4)GlcNAc(b1-3)Gal(b1-4)GlcNAc(b1-2)Man(a1-3)]Man(b1-4)GlcNAc(b1-4)[Fuc(a1-6)]GlcNAc
# How it was run: as §1
binder,measurement,setting,value
B1,glycan array binding signal (z-score),Glc(b1-6)Glc,1.39
same,glycan array binding signal (z-score),GlcA(b1-3)Gal,-0.595
same,glycan array binding signal (z-score),GlcA(b1-3)GlcNAc,-0.467
same,glycan array binding signal (z-score),GlcA(b1-6)Gal,-0.235
same,glycan array binding signal (z-score),[1],-0.439
same,glycan array binding signal (z-score),[2],-0.956
same,glycan array binding signal (z-score),[3],-0.358
same,glycan array binding signal (z-score),[4],-0.526
same,glycan array binding signal (z-score),[5],-0.366
same,glycan array binding signal (z-score),[6],-0.736
same,glycan array binding signal (z-score),[7],-0.466
same,glycan array binding signal (z-score),[8],-0.584
same,glycan array binding signal (z-score),[9],-0.42
same,glycan array binding signal (z-score),[10],-0.364
same,glycan array binding signal (z-score),[11],-0.524
same,glycan array binding signal (z-score),[12],-0.485
same,glycan array binding signal (z-score),[13],0.373
same,glycan array binding signal (z-score),[14],-0.514
same,glycan array binding signal (z-score),[15],-0.387
same,glycan array binding signal (z-score),[16],-0.712
same,glycan array binding signal (z-score),[17],-0.966
same,glycan array binding signal (z-score),[18],-0.425
same,glycan array binding signal (z-score),[19],-0.398
same,glycan array binding signal (z-score),[20],-0.116
same,glycan array binding signal (z-score),[21],-1.28
same,glycan array binding signal (z-score),[22],3.55
same,glycan array binding signal (z-score),[23],-0.451
same,glycan array binding signal (z-score),GlcNAc(b1-3)Fuc,-0.141
same,glycan array binding signal (z-score),GlcNAc(b1-3)Gal,-0.529
same,glycan array binding signal (z-score),[24],0.299
same,glycan array binding signal (z-score),GlcNAc(b1-3)Gal(b1-4)Glc,-0.557
same,glycan array binding signal (z-score),[25],-0.422
same,glycan array binding signal (z-score),[26],-0.246
same,glycan array binding signal (z-score),[27],0.16
same,glycan array binding signal (z-score),[28],4.24
same,glycan array binding signal (z-score),[29],-0.843
same,glycan array binding signal (z-score),[30],0.226
same,glycan array binding signal (z-score),[31],-0.598
same,glycan array binding signal (z-score),[32],3.24
same,glycan array binding signal (z-score),[33],0.001
same,glycan array binding signal (z-score),[34],-0.307
same,glycan array binding signal (z-score),[35],5.45
same,glycan array binding signal (z-score),[36],-0.549
same,glycan array binding signal (z-score),[37],-0.552
same,glycan array binding signal (z-score),[38],0.521
